# In PubChem BioAssay (Tox21):
# Where “and” joins values, the source holds several entries; their conditions need not be identical. Identical values can stand only once. Inconclusive results, whose numbers are uncertain, are shown with a selection of clear calls. Potencies beside an inconclusive call are fits to weak or partial responses and may not hold up. More than one record can exist for a structure, and the calls need not agree. Calls of active or inactive are those of the source. Unless noted, the call rests on the fitted dose curve; in most records, active means well fitted curve in the direction sought with a large enough effect in the repeat runs; inconclusive means weak or mixed curves; inactive means no such curve, though single readings can be large; an effect the other way counts as inactive or inconclusive.
# Columns and labels:
# [1] = qHTS assay for small molecules that induce genotoxicity in human embryonic kidney cells expressing luciferase-tagged ATAD5 - cell viability (AID 651634; calls by dose curve; further: nearly all actives have a fitted effect of over 25% in size); conditions: HEK293T ATAD5-luc cells viability, CellTiter-Fluor, 15.5 h; series mostly up to 83.3 µM
# Procedure, shortened: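 15.5 hr compound or vehicle exposure of HEK293T cells expressing luciferase-tagged ATAD5 at 37C; live-cell protease activity is read by fluorescence after 30 min of CellTiter-Fluor.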
# [2] = biological target: Glucocorticoid receptor (Homo sapiens) (UniProt P04150); test: qHTS assay to identify small molecule antagonists of the glucocorticoid receptor (GR) signaling pathway (AID 720692; active means well fitted inhibition curve with a large enough effect in the signal ratio in the repeat runs, not every such curve was filed as active; inconclusive means weak or mixed curves, or effect the other way; inactive means no such curve, though single readings can be large or run the other way; the % refers to the signal ratio); conditions: GR-bla HeLa, beta-lactamase FRET ratio, dexamethasone-stimulated, 18 h; activity change, negative = inhibition: at 58.5 µM (top of the series) unless noted
# Procedure, shortened: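 Tox21 10K library screened in concentration-response for blockade of dexamethasone (5 nM final)-induced GRE-bla reporter activity in HeLa cells; 18 h treatment, fluorescence read.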
# [3] = qHTS assay to identify small molecule antagonists of the glucocorticoid receptor (GR) signaling pathway - cell viability counter screen (AID 720693); conditions: GR-bla HeLa viability, CellTiter-Glo luminescence, 18 h, with 5 nM dexamethasone present; viability change, negative = cytotoxic: at 58.5 µM (top of the series) unless noted; further: nearly all actives have a fitted effect of over 55% in size; on viability change, negative = cytotoxic: on the % scale 0 is the no-effect control and ±100 the full control effect
# [4] = qHTS assay for identifying genotoxic compounds that show differential cytotoxicity against isogenic chicken DT40 cell lines with known DNA damage response pathways - wild type cell line (AID 743012); conditions: DT40 wild type chicken cells viability, CellTiter-Glo, 40 h; activity change, negative = cytotoxicity: at 68.4 µM (top of the series) unless noted; further: nearly all actives have a fitted effect of over 60% in size
# Procedure, shortened: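 Endpoint: CellTiter-Glo luminescence, 30 min RT. Cells: wild type DT40, 300/well. Exposure: compounds in DMSO, 40 h, 37 C/5% CO2, after ~0.5 h pre-incubation.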
# [5] = qHTS assay for identifying genotoxic compounds that show differential cytotoxicity against isogenic chicken DT40 cell lines with known DNA damage response pathways - Rad54/Ku70 mutant cell line (AID 743015); conditions: DT40 Rad54/Ku70 mutant viability, CellTiter-Glo, 40 h; activity change, negative = cytotoxicity: at 66.8 µM (top of the series); further: nearly all actives have a fitted effect of over 60% in size
# [6] = qHTS assay to identify small molecule antagonists of the androgen receptor (AR) signaling pathway - cell viability counter screen (AID 743033; further: nearly all actives have a fitted effect of over 45% in size); conditions: AR-bla HEK293 viability, CellTiter-Glo luminescence, 16 h; activity change, negative = cytotoxicity: at 58.5 µM (top of the series)
# [7] = qHTS assay for small molecule disruptors of the mitochondrial membrane potential - cell viability (AID 720634; calls by dose curve; further: nearly all actives have a fitted effect of over 20% in size;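 on activity change, negative = cytotoxicity: human HepG2 liver cancer cells; on the % scale 0 is the no-effect control and ±100 the full control effect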); conditions: HepG2 viability, ATP luminescence (CellTiter-Glo), 1 h; series mostly up to 83.2 µM
# Procedure, shortened: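 In this qHTS format, HepG2 cells plated overnight were pinned with compound, incubated 1 hr, and assayed for ATP luminescence with CellTiter-Glo after m-MPI dye addition.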
# [8] = qHTS assay for small molecule disruptors of the mitochondrial membrane potential (AID 720635); conditions: HepG2 mitochondrial membrane potential, Mito-MPS dye ratio; on ratio activity, negative = MMP loss: on the % scale 0 is the no-effect control and ±100 the full control effect
# Procedure, shortened: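 HepG2 cells exposed to compound 1 hr at 37C, then Mito-MPS dye 30 min. Ratio read of aggregate (540/590 nm) versus monomer (490/535 nm) fluorescence.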
# [9] = biological target: Glucocorticoid receptor (Homo sapiens) (UniProt P04150); test: qHTS assay to identify small molecule agonists of the glucocorticoid receptor (GR) signaling pathway (AID 720691; active means well fitted activation curve with a large enough effect in the signal ratio in the repeat runs, not every such curve was filed as active; inconclusive means weak or mixed curves, or effect the other way; inactive means no such curve, though single readings can be large or run the other way; the % refers to the signal ratio; on activation: on the % scale 0 is the no-effect control and ±100 the full control effect); conditions: GR-bla HeLa, beta-lactamase reporter ratio, 18 h
# Procedure, shortened: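 Measures GR pathway activation through a GRE-beta-lactamase reporter stably integrated in HeLa cells, with 18 h compound treatment at 37 C and fluorescence detection using a FRET substrate.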
# [10] = qHTS assay for identifying genotoxic compounds that show differential cytotoxicity against isogenic chicken DT40 cell lines with known DNA damage response pathways - Rev3 mutant cell line (AID 743014); conditions: chicken DT40 Rev3-/- viability, CellTiter-Glo, 40 h; activity, negative = cytotoxicity: at 68.4 µM (top of the series); further: nearly all actives have a fitted effect of over 55% in size
# [11] = qHTS assay to test for compound auto fluorescence at 460 nm (blue) in HEK293 cells (AID 720678); conditions: blue autofluorescence 405/460 nm; series mostly up to 91.3 µM
# Procedure, shortened: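 Auto fluorescence in the blue band was quantified as triamterene equivalency. HEK293 cells were seeded at 2,000/well, dosed after a 4-5 hr attachment, and kept overnight at 37C before the 405/460 nm reading.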
# [12] = qHTS assay to test for compound auto fluorescence at 460 nm (blue) in HEK293 cell free culture (AID 720681); conditions: cell-free medium, autofluorescence 405/460 nm (blue); series mostly up to 91.3 µM
# Procedure, shortened: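 Compounds were added to cell-free DMEM with 10% FBS and fluorescence read directly. The blue channel used 405 nm excitation and 460 nm emission, with triamterene as the reference fluorophore.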
# [13] = qHTS assay to test for compound auto fluorescence at 460 nm (blue) in HepG2 cell free culture (AID 720685); conditions: Cell-free culture medium, blue autofluorescence 405/460 nm; series mostly up to 91.3 µM
# Procedure, shortened: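 Cell-free plates of MEM plus 10% FBS received 23 nL compound or DMSO vehicle; blue-channel (405/460 nm) intensity scored against triamterene as reference fluorophore.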
# [14] = ratio activity, negative = MMP loss: at 83.2 µM (top of the series) unless noted
# [15] = activation: at 62.4 µM (top of the series) unless noted
# Potency means the concentration at half of the fitted maximal effect; tags describe the fitted curve by direction and shape or compound fluorescence and quenching.
# Sequence of UniProt P04150 (P04150 whole entry, looked up): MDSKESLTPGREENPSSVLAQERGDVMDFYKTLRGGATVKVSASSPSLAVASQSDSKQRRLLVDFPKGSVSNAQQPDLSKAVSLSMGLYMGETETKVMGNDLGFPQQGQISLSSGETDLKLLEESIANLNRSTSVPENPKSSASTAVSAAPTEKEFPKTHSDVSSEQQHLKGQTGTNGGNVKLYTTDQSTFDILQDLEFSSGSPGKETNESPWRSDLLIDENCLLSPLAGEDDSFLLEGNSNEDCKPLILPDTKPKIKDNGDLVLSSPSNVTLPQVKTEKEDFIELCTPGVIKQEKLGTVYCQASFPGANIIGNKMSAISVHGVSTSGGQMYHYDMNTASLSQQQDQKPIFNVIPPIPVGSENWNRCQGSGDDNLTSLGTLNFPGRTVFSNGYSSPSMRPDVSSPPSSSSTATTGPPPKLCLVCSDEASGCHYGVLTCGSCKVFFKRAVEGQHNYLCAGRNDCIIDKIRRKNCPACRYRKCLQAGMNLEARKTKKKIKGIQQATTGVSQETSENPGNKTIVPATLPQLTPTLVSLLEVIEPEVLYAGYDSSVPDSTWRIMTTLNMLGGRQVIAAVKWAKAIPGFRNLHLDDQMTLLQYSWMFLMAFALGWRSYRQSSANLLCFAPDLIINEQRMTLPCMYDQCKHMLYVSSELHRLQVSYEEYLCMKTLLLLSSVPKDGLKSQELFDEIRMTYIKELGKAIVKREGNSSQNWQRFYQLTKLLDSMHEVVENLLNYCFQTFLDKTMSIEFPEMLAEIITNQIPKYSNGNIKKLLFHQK
smiles,measurement,setting,value
O=P(OCC(Br)CBr)(OCC(Br)CBr)OCC(Br)CBr (stereo not drawn),Potency,[1],"inconclusive: 58 µM [falling, partial curve, poor fit]"
same,Potency,[2],active: 55.7 µM and inconclusive: 46.5 µM [cytotoxic]
same,Potency,[3],"inconclusive: 55.7 µM [cytotoxic, single point] and inconclusive: 41.4 µM [cytotoxic, partial curve]"
same,Potency,[4],"inconclusive: 78 µM [cytotoxic, single point]"
same,Potency,[5],"inconclusive: 69.5 µM [cytotoxic, single point]"
same,Potency,[6],"inconclusive: 39.4 µM [cytotoxic, partial curve] and inconclusive: 46.5 µM [cytotoxic, single point]"
ClC1=C(Cl)[C@]2(Cl)[C@@H]3[C@@H]4C[C@@H]([C@H]5O[C@@H]45)[C@@H]3[C@@]1(Cl)C2(Cl)Cl,Potency,[7],"inconclusive: 48.6 µM [cytotoxic, partial curve]"
same,Potency,[8]; [14],active: 19.3 µM
same,Potency,[9]; [15],inactive
same,Potency,[2],active: 36.7 µM
same,Potency,[3],inconclusive: 54.9 µM [cytotoxic]
same,Potency,[4],"inconclusive: 0.243 µM [rising, full curve]"
CCC(C)(C)c1ccc(O)cc1,Potency,[7],"inconclusive: 13.3 µM [cytotoxic, partial curve, poor fit] and active: 55 µM"
same,Potency,[8]; [14],active: 26.6 µM and active: 17.4 µM and active: 15.4 µM
same,Potency,[9]; [15],inactive
same,"viability change, negative = cytotoxic",[3],inconclusive: -0.804%
same,Potency,[4],"inconclusive: 24.6 µM [rising, partial curve]"
same,Potency,[5],"inconclusive: 77.7 µM [cytotoxic, single point]"
same,Potency,[6],"inconclusive: 49.5 µM [cytotoxic, partial curve] and inconclusive: 54.9 µM [cytotoxic, single point]"
CN(C)CCO,Potency,[7],inactive
same,"ratio activity, negative = MMP loss",[8]; at 83.2 µM (top of the series),inactive: 15.1% and inactive: 2.88%
same,"ratio activity, negative = MMP loss",[8]; [14],inconclusive: 7.66% [at 95.3 µM]
same,activation,[9]; [15],inconclusive: -1.27% [phenotype inactive] [at 79.2 µM]
same,activation,[9]; at 62.4 µM (top of the series),inactive: -3.76% and inactive: -1.04%
same,Potency,[2],inactive
CCCCCCCCCCCOC(=O)c1ccccc1C(=O)OCCCCCCCCCCC,Potency,[7],inactive
same,Potency,[8]; [14],"inconclusive: 24.3 µM [activator, partial curve]"
same,Potency,[4],"inactive and inconclusive: 68.6 µM [cytotoxic, single point]"
same,Potency,[5],inactive
CCCCCCCc1ccc(O)cc1,Potency,[7],"inconclusive: 68.6 µM [cytotoxic, partial curve, poor fit]"
same,Potency,[8]; [14],active: 7.7 µM
same,Potency,[3],"inconclusive: 54.9 µM [cytotoxic, single point]"
[Cd+2].[Cl-].[Cl-],Potency,[1],active: 1.95 µM and active: 1.22 µM
same,Potency,[3],"inconclusive: 55.4 µM [cytotoxic, single point] and inconclusive: 54.9 µM [cytotoxic, single point]"
same,Potency,[4],active: 19.5 µM and active: 24.3 µM
same,Potency,[6],"active: 24.8 µM and inconclusive: 6.92 µM [cytotoxic, full curve]"
ClC1C(Cl)C(Cl)C(Cl)C(Cl)C1Cl (stereo not drawn),Potency,[7],"inconclusive: 62.4 µM [cytotoxic, partial curve] and inconclusive: 61.1 µM [cytotoxic, partial curve, poor fit] and inconclusive: 30.6 µM [cytotoxic, partial curve]"
same,Potency,[8]; [14],"inconclusive: 13.3 µM [inhibitor, partial curve, poor fit] and inconclusive: 60.6 µM [inhibitor, partial curve, poor fit]"
same,Potency,[10],"inconclusive: 49.5 µM [cytotoxic, partial curve] and inconclusive: 68 µM [cytotoxic, single point]"
COP(=O)(OC)C(O)C(Cl)(Cl)Cl (stereo not drawn),Potency,[1],"inconclusive: 26.6 µM [falling, partial curve, poor fit] and inconclusive: 55 µM [falling, partial curve, poor fit]"
same,Potency,[4],"inconclusive: 49 µM [rising, partial curve]"
same,Potency,[10],"inconclusive: 68.5 µM [cytotoxic, partial curve, poor fit]"
same,Potency,[5],inactive
CCCCCCCCCCCCCCCC[N+](C)(C)C,Potency,[1],"inconclusive: 29.8 µM [falling, partial curve, poor fit]"
same,Potency,[8]; [14],active: 13.3 µM and active: 10.5 µM and active: 27.3 µM
same,Potency,[9]; [15],"inconclusive: 19 µM [cytotoxic, partial curve] and inconclusive: 16.8 µM [cytotoxic, partial curve] and inconclusive: 38.9 µM [cytotoxic, partial curve]"
same,Potency,[2],"inconclusive: 30.1 µM [cytotoxic] and inconclusive: 26.6 µM [cytotoxic] and inconclusive: 54.9 µM [cytotoxic, single point]"
same,Potency,[3],active: 23.9 µM and active: 26.6 µM and active: 34.7 µM
same,Potency,[6],"inconclusive: 23.9 µM [cytotoxic, partial curve] and active: 21.1 µM and active: 27.5 µM"
Cc1ccc2cc3c(ccc4ccccc43)c3c2c1CC3,Potency,[7],"inconclusive: 24.4 µM [cytotoxic, partial curve, poor fit]"
same,Potency,[8]; [14],active: 12.2 µM
same,Potency,[4],"inconclusive: 0.771 µM [rising, partial curve, poor fit]"
C[C@]12CC[C@H](O)CC1=CC[C@@H]1[C@@H]2CC[C@]2(C)C(=O)CC[C@@H]12,Potency,[7],"inconclusive: 61.2 µM [cytotoxic, partial curve, poor fit] and inconclusive: 68.6 µM [cytotoxic, single point]"
same,activation,[9]; [15],inconclusive: -13.8%
same,Potency,[4],"inconclusive: 77 µM [cytotoxic, single point] and inconclusive: 68.6 µM [cytotoxic, single point]"
same,Potency,[6],inconclusive: 43.7 µM [cytotoxic]
Oc1cccc2cccnc12,Potency,[1],"inconclusive: 51.6 µM [falling, partial curve, poor fit]"
same,"ratio activity, negative = MMP loss",[8]; [14],inconclusive: -13.1%
same,Potency,[3],"inconclusive: 58.4 µM [cytotoxic] and inconclusive: 38.9 µM [cytotoxic, partial curve, poor fit]"
O=C1C(I)=CC(=C(c2cc(I)c(O)c(I)c2)c2ccccc2C(=O)O)C=C1I,Potency,[1],"inconclusive: 18.8 µM [falling, partial curve, poor fit] and inconclusive: 8.41 µM [falling, partial curve, poor fit]"
same,Potency,[9]; [15],"inconclusive: 23.9 µM [inhibitor, single point] and inconclusive: 10.7 µM [inhibitor, full curve]"
same,Potency,[3],"inconclusive: 19 µM [cytotoxic, partial curve] and inconclusive: 9.52 µM [cytotoxic, single point]"
same,Potency,[4],"inconclusive: 33.5 µM [cytotoxic, single point]"
same,Potency,[10],"inconclusive: 33.5 µM [cytotoxic, single point]"
same,Potency,[6],"inconclusive: 3.38 µM [rising, partial curve, poor fit]"
COP(=S)(OC)Oc1ccc([N+](=O)[O-])cc1,Potency,[7],inactive and active: 54.5 µM
same,Potency,[8]; [14],"inconclusive: 15.4 µM [inhibitor, partial curve, poor fit] and active: 34.4 µM"
CCOP(=S)(OCC)SCSCC,Potency,[7],inactive
same,Potency,[8]; [14],"inconclusive: 68.6 µM [rising, partial curve, poor fit]"
same,"activity change, negative = inhibition",[2],inconclusive: 1.97%
same,Potency,[4],active: 54.5 µM
CN(C)[C@@H]1C(=O)C(C(N)=O)=C(O)[C@@]2(O)C(=O)C3=C(O)c4c(O)cccc4[C@@](C)(O)[C@H]3C[C@@H]12,Potency,[7],inactive
same,Potency,[11],"inconclusive: 44.7 µM [fluorescent, partial curve, poor fit]"
same,Potency,[12],"inconclusive: 35.5 µM [rising, partial curve, poor fit]"
same,Potency,[13],"inconclusive: 39.8 µM [fluorescent, partial curve, poor fit]"
same,"viability change, negative = cytotoxic",[3],inconclusive: 11.5% [at 27 µM]
same,Potency,[10],"inconclusive: 27.4 µM [cytotoxic, single point] and inconclusive: 68.6 µM [cytotoxic, single point]"
same,Potency,[5],"inconclusive: 27.4 µM [cytotoxic, single point]"
O=C1c2ccccc2C(=O)c2ccccc21,Potency,[7],inactive
same,Potency,[8]; [14],"inconclusive: 4.22 µM [inhibitor, partial curve]"
Nc1ccccc1-c1ccccc1,Potency,[1],"inconclusive: 5.42 µM [falling, partial curve, poor fit]"
same,"ratio activity, negative = MMP loss",[8]; [14],inconclusive: 7.94%
same,"activity change, negative = inhibition",[2],inconclusive: 5.47%
CCCCCCCCCCCCOS(=O)(=O)O,Potency,[7],inactive
same,Potency,[9]; [15],inconclusive: 61.7 µM [cytotoxic]
same,Potency,[3],inactive
same,Potency,[10],"inconclusive: 61.1 µM [cytotoxic, partial curve, poor fit]"
CCOC(=O)CC(SP(=S)(OC)OC)C(=O)OCC (stereo not drawn),Potency,[7],"inconclusive: 54.5 µM [cytotoxic, partial curve]"
same,Potency,[8]; [14],"inconclusive: 0.0969 µM [fluorescent, single point]"
same,Potency,[11],inactive
same,Potency,[4],inconclusive: 27.3 µM [cytotoxic]
same,Potency,[5],inactive and active: 58.8 µM
same,Potency,[6],"inconclusive: 43.6 µM [cytotoxic, partial curve, poor fit]"
